Test results published in PubChem BioAssay (NCI).
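How tested: cells in 96-well plates exposed to compound for 48 hours at five concentrations. GI50 is the concentration that inhibits growth by half.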 Certain results were filed several times, with different values. Only these are listed. The source may hold further records. For part of these data: The tests behind the records often covered other concentration ranges, not given here; some values may only mark the edge of a range. For part of these data: Values that stand side by side repeat one measurement (runs, samples, wells, individuals or studies). What stands in brackets tells the records apart. Letters count within one entry.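 TGI: total growth inhibition.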

Tests used:
Experiment in all cases: NCI tumour cell line growth inhibition, 48 h
SF-268 CNS = system: SF-268 CNS
XF 498 CNS = system: XF 498 CNS
CCRF-CEM leukemia = system: CCRF-CEM leukemia
SN12C renal = system: SN12C renal
K-562 leukemia = system: K-562 leukemia
MDA-MB-231 breast = system: MDA-MB-231 breast
MDA-MB-435 = system: MDA-MB-435
MDA-N = system: MDA-N
NCI-H460 lung = system: NCI-H460 lung
RPMI-8226 leukemia = system: RPMI-8226 leukemia
SK-MEL-28 melanoma = system: SK-MEL-28 melanoma
UACC-62 melanoma = system: UACC-62 melanoma

O=CC(NC(=O)N(CCCl)N=O)C(O)C(O)C(O)CO (configuration not stated)
TGI (SF-268 CNS): 106 µM, > 1.25 mM, > 1.18 mM
GI50 (XF 498 CNS): > 1.25 mM [1 test] and 19.8 µM [mean of 2 tests] and 580 µM [mean of 5 tests]

CO[C@@H](C(=O)N1Cc2[nH]nc(NC(=O)c3ccc(N4CCN(C)CC4)cc3)c2C1)c1ccccc1
GI50 (CCRF-CEM leukemia): 39.3 µM [sample A, 1 test] and 47.1 nM [sample B, mean of 2 tests]
GI50 (SN12C renal): 1.73 µM [sample A, mean of 2 tests] and 140 nM [sample B, mean of 2 tests]

O=[N+]([O-])c1cccc2nc3ccccc3c(NCCO)c12
TGI (K-562 leukemia): 3.53 nM and > 100 nM
TGI (MDA-MB-231 breast): 7.88 nM and 0.784 nM
TGI (MDA-MB-435): 3.67 nM and 0.207 nM
TGI (MDA-N): 5.36 nM and 0.132 nM
TGI (NCI-H460 lung): 2.38 nM and 0.226 nM
TGI (RPMI-8226 leukemia): 3.37 nM and > 100 nM
TGI (SK-MEL-28 melanoma): 5.17 nM, 1.74 nM, > 100 nM
TGI (UACC-62 melanoma): 5.92 nM, 2.06 nM, > 100 nM
